# Reference: PubChem BioAssay AID624171 (National Center for Advancing Translational Sciences (NCATS), 2012)
# The campaign covered roughly 410,000 compounds. About 1,200 (0.29%) were called active. Inconclusive means that the source gave no clear call. Such entries were picked first, then a sample of the others. Calls follow the shape of the dose curve; as a rule, active = well fitted activation curve with a large enough effect; inconclusive = small, poorly fitted or top-dose-only effect; inactive = flat fitted curve, though single readings scatter. A potency beside an inconclusive call is a rough fit, not a confirmed value.
# Assay: qHTS of Nrf2 Activators; also: nearly all actives have a fitted effect of over 65% in size
# Conditions: AREc32 ARE-luciferase reporter (MCF7-derived line), luminescence, 24 h; series mostly up to 46.1 µM
# How it was run: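 AREc32 cells carrying an ARE-driven firefly luciferase, 1000 cells/well in OPTI-MEM with 5% FBS, dosed after overnight attachment and incubated 24 hr at 37 deg C. Steady-Glo luminescence read after 30 min at RT.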
# Potency is read from the fitted curve at half-maximal effect; tags tell the direction and shape of the fitted curve.
row,SMILES,Potency
1,O=c1c(Cl)c(Cl)cnn1Cc1ccccc1Cl,"inconclusive: 3.16 µM [activator, single point]"
2,N/C(=N\C(=S)Nc1ccc2c(c1)OCO2)c1ccccc1,inactive
3,COc1ccc(CCNC(=O)c2cc(Nc3cc(C)cc(C)c3)nc3ccccc23)cc1OC,inactive
4,Clc1cccc(-c2nc3ccc(Br)cn3c2Cc2ccsc2)c1,"inconclusive: 12.6 µM [activator, single point]"
5,O=C1/C(=C\c2ccco2)SC(=S)N1C1CCS(=O)(=O)C1 (stereo not drawn),"inconclusive: 3.55 µM [activator, single point]"
6,CCCCCCC(=O)N(O)C1CC(=O)N(c2ccc(Br)cc2)C1=O (stereo not drawn),"inconclusive: 25.1 µM [activator, single point]"
7,CCOc1ccsc1C(=O)NNC(=O)c1ccco1,"inconclusive: 3.98 µM [activator, partial curve]"
8,O=C(/C=C/Nc1ccc(F)c(F)c1)c1cccs1,active: 8.91 µM
9,Cc1ccc(N/N=C(\C#N)C(=O)c2ccsc2)cc1,inactive
10,CC(=O)Nc1ccc2c(c1)C(=O)c1ccc(Cl)cc1-2,"inconclusive: 14.1 µM [activator, partial curve]"
11,CCN(CC(=O)Nc1ccc2c(c1)OCCO2)Cc1cc(=O)oc2c(C)c(C)ccc12,inactive
12,COCCNC(=O)c1ccc(-n2c(-c3ccccc3)cc3c2CCCCC3)cc1,active: 15.8 µM
13,N#CC(C#N)=C(Nc1ccc(F)cc1)SCc1cccc(F)c1,"inconclusive: 15.8 µM [activator, single point]"
14,COc1cc(/C=C2\CCC/C(=C\c3ccc(O)c(OC)c3)C2=O)ccc1O,"inconclusive: 3.55 µM [activator, single point]"
15,Cn1cc([N+](=O)[O-])c(C(=O)Nc2ccn(C34CC5CC(CC(C5)C3)C4)n2)n1,"inconclusive: 35.5 µM [activator, single point]"
16,CC(C)C[C@H]1CN(CCCC[C@@H]2CNC(=O)C(=O)N2CCc2ccccc2)C(=O)C(=O)N1Cc1ccccc1,inactive
17,Cc1cc(NC(=O)c2ccccc2)nc2c1c(=O)oc1ccccc12,"inconclusive: 1.26 µM [activator, full curve, poor fit]"
18,Cc1cc(C)n2nc(-c3ccc(F)cc3)nc2n1,"inconclusive: 2.51 µM [activator, full curve, poor fit]"
19,Nc1nonc1N/N=C/c1c(O)ccc2ccccc12,active: 7.94 µM
20,O=C1CC(N2CCN(C/C=C/c3ccccc3)CC2)C(=O)N1CCc1ccccc1 (stereo not drawn),inactive
21,COc1cccc(NC(=O)c2cc(-c3ccco3)nc3ccccc23)c1,"inconclusive: 17.8 µM [activator, partial curve, poor fit]"
22,CN1CCN(C(=O)c2cc(COc3ccc(F)cc3Cl)on2)CC1c1ccccc1 (stereo not drawn),inactive
23,Cc1nc(NCc2ccco2)nc2c1C(=O)CC(C)C2 (stereo not drawn),active: 2 µM
24,COc1cc(/C=C/C(=O)N2CCC=CC2=O)cc(OC)c1OC,"inconclusive: 2.51 µM [activator, partial curve, poor fit]"
25,Cc1n[nH]c(C)c1S(=O)(=O)N1CCCC(C(=O)Nc2ccc(Cl)cc2)C1 (stereo not drawn),inactive

row,SMILES,Potency
1,O=C(N/C(=C/c1ccccc1)C(=O)N1CCOCC1)c1ccc([N+](=O)[O-])cc1,inactive
2,Cc1cc(C)nc(SCC(=O)NCC2COc3ccccc3O2)n1 (stereo not drawn),inactive
3,Nc1ccc(S(=O)(=O)Nc2nccc(/C=C/c3ccccc3F)n2)cc1,"inconclusive: 12.6 µM [activator, partial curve, poor fit]"
4,Cc1ccc(S(=O)(=O)N/N=C/c2cc(Br)c(C)o2)cc1,"inconclusive: 22.4 µM [activator, single point]"
5,O=C(Nc1ccc(Cl)c(Cl)c1)c1ccccc1,"inconclusive: 2.51 µM [activator, full curve, poor fit]"
6,Cc1ccnc(NC(=O)c2ccc(Cl)c([N+](=O)[O-])c2)c1,"inconclusive: 17.8 µM [activator, single point]"
7,Cn1cc([N+](=O)[O-])c(C(=O)Nc2ccc(C(=O)N3CCCCC3)cc2)n1,"inconclusive: 28.2 µM [activator, single point]"
8,Cc1cccc(NC(=O)/C=C/c2cccs2)n1,"inconclusive: 12.6 µM [activator, single point]"
9,O=[N+]([O-])c1cccc2ccc(/C=C/c3ccc(F)cc3)nc12,"inconclusive: 1.26 µM [activator, full curve, poor fit]"
10,Clc1ccc(Nc2nc(-c3cccs3)cs2)nc1,"inconclusive: 2.24 µM [activator, partial curve, poor fit]"
11,COc1ccc2nc(NC(=O)C3CCN(S(=O)(=O)c4cccs4)CC3)sc2c1,inactive
12,O=C(NCC1CCCO1)c1ccc([N+](=O)[O-])o1 (stereo not drawn),active: 10 µM
13,N/C(=N\OC(=O)c1ccccc1Cl)c1ccccn1,"inconclusive: 3.16 µM [activator, partial curve, poor fit]"
14,CCN1CCc2nc3sc(C(=O)c4ccccc4)c(N)c3cc2C1,inactive
15,O=C(Oc1ccc(Cl)c2cccnc12)c1ccco1,"inconclusive: 11.2 µM [activator, single point]"
16,CCOC(=O)CC(=O)CSc1ccc2nnc(-c3cccc(F)c3)n2n1,inactive
17,O=C1C(Cl)=C(NCCc2ccccc2)C(=O)c2ccccc21,"inconclusive: 3.16 µM [activator, single point]"
18,O=C(NCc1ccccn1)c1coc(=O)c(Br)c1,"inconclusive: 28.2 µM [activator, single point]"
19,Cc1cc(Cl)ccc1OCC(=O)N1CCCN(C(=O)COc2ccc(Cl)cc2C)CC1,inactive
20,COc1ccc(N(CCCN2C(=O)c3cccc4cccc(c34)C2=O)C(=O)c2ccncc2)cc1,"inconclusive: 2.51 µM [activator, full curve, poor fit]"
21,CCCCCCn1c(=O)n2n(c1=O)[C@@H]1CN(S(=O)(=O)c3ccc(C)cc3)C[C@]1(O)[C@@H](OC(=O)NC1CCCC1)C2,inactive
22,O=C(c1ccc(S(=O)(=O)Cc2ccccc2Cl)c([N+](=O)[O-])c1)N1CCN(c2ccccn2)CC1,"inconclusive: 20 µM [activator, single point]"
23,O=C(Nc1nnc(-c2ccco2)o1)c1ccc(Cl)s1,"inconclusive: 12.6 µM [activator, single point]"
24,CCCSc1nc(=O)n2cccc(C)c2n1,"inconclusive: 22.4 µM [activator, single point]"
25,COC(=O)C1=C(C)N(c2ccc(F)c(Cl)c2)C(=O)C1,"inconclusive: 25.1 µM [activator, single point]"

row,SMILES,Potency
1,CN(C)c1nc(C=C(C#N)C#N)c(Cl)n1-c1ccc(F)cc1,"inconclusive: 3.55 µM [activator, single point]"
2,COC(=O)c1ccccc1SC(CC(=O)c1ccccc1)c1ccc(F)cc1 (stereo not drawn),"inconclusive: 28.2 µM [activator, single point]"
3,CCOc1ccc(C(=O)CCN2CCCCC2)cc1,"inconclusive: 35.5 µM [activator, single point]"
4,COc1ccc(-c2cccc(NS(=O)(=O)c3ccc(C)s3)c2)nn1,inactive
5,CCn1c(SCC(=O)N/N=C/C(C)=C/c2ccco2)nnc1-c1ccccc1,"inconclusive: 14.1 µM [activator, single point]"
6,CC1CCCN(C(=O)c2ccc([N+](=O)[O-])o2)C1 (stereo not drawn),"inconclusive: 15.8 µM [activator, partial curve, poor fit]"
7,Nc1nc(SCC(=O)Nc2cccc(C(F)(F)F)c2)n[nH]1,inactive
8,CN(CC(=O)Nc1ccc(OC(F)(F)F)cc1)C(=O)/C=C/c1ccco1,"inconclusive: 35.5 µM [activator, single point]"
9,CCN(CC)CCOc1ccc(Br)cc1,inactive
10,O=C(Nc1cccc(F)c1)Nc1ccccn1,"inconclusive: 15.8 µM [activator, partial curve, poor fit]"
11,COCCOC(=O)C1=C(C)N=C2SCCC(=O)N2C1/C=C/c1ccccc1 (stereo not drawn),"inconclusive: 25.1 µM [activator, single point]"
12,Cc1ccc2c(c1)N=C(c1ccc(F)cc1)CO2,"inconclusive: 20 µM [activator, single point]"
13,Clc1ccc2nc(-c3ccccc3)c(CN3CCOCC3)n2c1,inactive
14,Brc1ccc(C2=CC(c3cccs3)n3ncnc3N2)cc1 (stereo not drawn),"inconclusive: 2.82 µM [activator, full curve, poor fit]"
15,O=C(CSc1nc(-c2cccs2)nc2cc(=O)[nH]n12)Nc1cccc(C(F)(F)F)c1,"inconclusive: 17.8 µM [activator, single point]"
16,Cc1ccsc1/C=N/n1cnc2sc(C)c(C)c2c1=O,inactive
17,C[C@]12c3[nH]c4ccccc4c3CCN1C(=O)C(CC(=O)NCC13CC4CC(CC(C4)C1)C3)C[C@@H]2C(=O)N1CCCCC1 (stereo partly drawn),inactive
18,Cc1ccc(-n2ncc3c2CCCC3NC(=O)c2ocnc2C)cc1C (stereo not drawn),inactive
19,Cc1ccc(S(=O)(=O)c2c(Nc3cc(C)ccc3C)sc(C(=O)c3ccc4c(c3)OCO4)c2N)cc1,inactive
20,O=C(N/N=C\C=C\c1ccco1)c1cncc(Br)c1,active: 12.6 µM
21,O=C(CS(=O)c1ccc(C(F)(F)F)cc1[N+](=O)[O-])Oc1ccccc1 (stereo not drawn),"inconclusive: 3.55 µM [activator, single point]"
22,CCn1nc(C(=O)Nc2cccc3ccccc23)c(Cl)c1Cl,active: 7.08 µM
23,Cc1csc(NC(=O)CSc2nc(C(C)C)nc3ccccc23)n1,"inconclusive: 22.4 µM [activator, single point]"
